Results from article PMC5740170, “Pro-inflammatory hepatic macrophages generate ROS through NADPH oxidase 2 via endocytosis of monomeric TLR4–MD2 complex” (Nature Communications, 2017).

Target: T1, Human MD2 (amino acids 19-160) (human, UniProt Q9Y6Y9 19-160)
T1 construct: MD2 (lymphocyte antigen 96), human, amino acids 19-160; also called hMD2; source: High Five insect cells, co-expressed with TLR4, purified (IgG Sepharose, thrombin digestion on resin, Superdex 200); not shown: protein A, C-terminal, cleaved
T1 sequence (looked up): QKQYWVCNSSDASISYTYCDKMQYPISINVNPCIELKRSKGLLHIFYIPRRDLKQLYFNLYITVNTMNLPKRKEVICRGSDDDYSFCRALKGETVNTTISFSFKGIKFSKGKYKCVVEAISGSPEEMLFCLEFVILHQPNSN
Assay: SEC; Superdex 200; hTLR4–MD2 complex alone, co-expressed in High Five cells and co-purified by the protein A tag on MD2 (tag cleaved); elution against standard proteins
Conditions: both partners purified

B1: Human TLR4 ([…]) (domain or fragment)
chain: not shown
notes: Toll-like receptor 4, human, […]; also called hTLR4; source: High Five insect cells, co-expressed with MD2-protein A, purified (IgG Sepharose, Superdex 200)
- stoichiometry N: 1
